From the BET-seq Pho4 binding data (Le et al. 2018)
The list shows a part of the results. These are noisy estimates, calculated here from bound and input reads.

biological target: T1, Pho4 (S. cerevisiae) (UniProt P07270); assay: relative binding free energy (BET-seq); higher = weaker binding; settings: reference: library average
T1 sequence: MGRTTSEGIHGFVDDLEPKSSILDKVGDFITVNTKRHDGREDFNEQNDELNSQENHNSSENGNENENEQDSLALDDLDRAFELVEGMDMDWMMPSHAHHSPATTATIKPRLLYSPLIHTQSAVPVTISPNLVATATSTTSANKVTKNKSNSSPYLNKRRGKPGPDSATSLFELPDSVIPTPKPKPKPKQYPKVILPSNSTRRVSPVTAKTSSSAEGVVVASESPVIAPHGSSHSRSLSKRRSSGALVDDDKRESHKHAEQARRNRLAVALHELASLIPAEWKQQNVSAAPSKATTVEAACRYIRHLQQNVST

Relative binding free energy, 0.26 kcal/mol:
AAATTCACGTGTTGGC, AAGTTCACGTGGCAAG, AGGTTCACGTGGATTA, CATTTCACGTGGGGAA, TGTCACACGTGAGGTT

Relative binding free energy, 0.25 kcal/mol:
GATGGCACGTGAGGTA, TATTTCACGTGGTGTT

Relative binding free energy, 0.15 kcal/mol:
GTATCCACGTGGATGT, CGTCACACGTGTGGGT, ATCTTCACGTGTGTTG, GGTGTCACGTGTATGA

Relative binding free energy, 0.06 kcal/mol:
CGATGCACGTGGTGAG, GCGATCACGTGTATGG, CTTGCCACGTGAGGGG, AGGTACACGTGATCGG, AATGTCACGTGGATGG

Relative binding free energy, 0.33 kcal/mol:
TTATGCACGTGAGAGC, CGATTCACGTGTGTTA

Relative binding free energy, 0.21 kcal/mol:
GGGACCACGTGTAATG, AGGTACACGTGACGTG, TTTATCACGTGTCAAG, GGGCCCACGTGATGGT, GAGAACACGTGTTGAG, GTTTACACGTGCTTGG, TTTTTCACGTGGGGTA, ATGTTCACGTGAGTAG, TTAATCACGTGTGGAA, TAGTTCACGTGGTATT

Relative binding free energy, -0.31 kcal/mol:
CAAGGCACGTGGGTAT

Relative binding free energy, 0.19 kcal/mol:
TGGGTCACGTGTGTGT, GATATCACGTGTTTAT, GAAGGCACGTGAGTTT, ACAGACACGTGTGGTA, TGGTTCACGTGTAGCT

Relative binding free energy, 0.56 kcal/mol:
GCTTTCACGTGTTGGC

Relative binding free energy, 0.44 kcal/mol:
AGTTTCACGTGATGGG, GGTTTCACGTGATATC

Relative binding free energy, -0.09 kcal/mol:
GTTAGCACGTGATGCT, TAGAGCACGTGTGCGG, GATGACACGTGGGTGA, TGTACCACGTGTGAGT

Relative binding free energy, 0.32 kcal/mol:
GGAGTCACGTGCAATT

Relative binding free energy, 0.13 kcal/mol:
ATAGTCACGTGTGGTT, TGCTGCACGTGTGTTT, AGCATCACGTGTAGGG, AAGGGCACGTGAGGTG, CGAGGCACGTGAAGTG, TGAGGCACGTGATATG, TAAGTCACGTGGGAAA

Relative binding free energy, 0.51 kcal/mol:
GGTTTCACGTGAAGAG

Relative binding free energy, -0.19 kcal/mol:
TGGGACACGTGCCGGT, CTGGGCACGTGGGCAG, AGGTCCACGTGGGGCT

Relative binding free energy, 0.05 kcal/mol:
AATTTCACGTGGGCTA, CTTTCCACGTGTTTTT, TATTGCACGTGGATGC, TGCTACACGTGGGTGT, TCTGTCACGTGCAGTT, TGTTACACGTGGGTGC

Relative binding free energy, -0.12 kcal/mol:
TTTAGCACGTGGTGGA, GTGAACACGTGGTTAG, TGTGACACGTGGGAAA

Relative binding free energy, -0.25 kcal/mol:
TGTGGCACGTGGCCAT, CTTGGCACGTGGCGTG

Relative binding free energy, -0.05 kcal/mol:
CTTTGCACGTGGGATG

Relative binding free energy, -0.17 kcal/mol:
TAGTCCACGTGGGGCT, TGTAGCACGTGGTGTG, CGTGACACGTGGGGGA

Relative binding free energy, 0.14 kcal/mol:
TGGATCACGTGGAGAG, TTGTGCACGTGTAGAA

Relative binding free energy, 0.1 kcal/mol:
GGCGTCACGTGGCAGG, TATATCACGTGTAATG, GGTATCACGTGGTTTC

Relative binding free energy, -0.26 kcal/mol:
ATGGGCACGTGGGCGA, AAGTGCACGTGGGTCA

Relative binding free energy, 0.17 kcal/mol:
TGGAACACGTGCGTGA, TTAATCACGTGGTTAC, AACGGCACGTGAATGG, ACCTTCACGTGGGGTG, TATTTCACGTGCTTAG

Relative binding free energy, -0.01 kcal/mol:
ATGTACACGTGTTTGA, TAGTGCACGTGTGTTG, TTATGCACGTGTGGGC, GTGAGCACGTGGTCTT, AGTGTCACGTGTGTTG, TTAAACACGTGGGTCT

Relative binding free energy, 0.52 kcal/mol:
GACATCACGTGAGGTT, GATTTCACGTGACGTA

Relative binding free energy, 0.2 kcal/mol:
TAGGACACGTGTGATG, TCTCTCACGTGGGGAG, TATTGCACGTGAAGCT, TTTTTCACGTGCATTG, TGCTGCACGTGAGTGC

Relative binding free energy, 0.23 kcal/mol:
ATGGTCACGTGTTTTG, TGTGACACGTGTATTC, AATGTCACGTGAGCAG, TCATTCACGTGGTGTG, GGAACCACGTGAGGGG

Relative binding free energy, 0.24 kcal/mol:
GTAGACACGTGTACGT, CAATGCACGTGAAGTG, ATTTCCACGTGATGTT, GGTTTCACGTGTTTAA, TGCTTCACGTGGTGGT, ATGTTCACGTGTAGGG

Relative binding free energy, 0.18 kcal/mol:
TATTTCACGTGTATAC, GCGTTCACGTGTGCGG, CTTGTCACGTGGTTTC, TTAGTCACGTGCGTTA, CGGTTCACGTGGTCGT

Relative binding free energy, 0.46 kcal/mol:
GGCGGCACGTGAGTTC

Relative binding free energy, -0.13 kcal/mol:
GGAGGCACGTGGAGGC

Relative binding free energy, -0.15 kcal/mol:
ATAGGCACGTGGATTG, GGGAACACGTGGGGTA

Relative binding free energy, -0.06 kcal/mol:
CTGGCCACGTGGTTTT, GTCGGCACGTGTCTGG, AAGTGCACGTGCCGGT

Relative binding free energy, 0.02 kcal/mol:
TGTGTCACGTGGTGGA, GGGAGCACGTGAGAGT, ATAATCACGTGCTGGG

Relative binding free energy, 0.09 kcal/mol:
TGTATCACGTGTTACG, AAGTGCACGTGGACGG, GGGAACACGTGTTATG, GCTATCACGTGGGTAG, AAGCGCACGTGTCGGT

Relative binding free energy, 0.35 kcal/mol:
CTGGACACGTGAGTTT

Relative binding free energy, -0.14 kcal/mol:
GGAGGCACGTGTAGGG, AGACGCACGTGTGGGT, TAGGGCACGTGCCAGG

Relative binding free energy, -0.24 kcal/mol:
AAGTGCACGTGGGCAG

Relative binding free energy, 0.04 kcal/mol:
AACATCACGTGTGGTT, AGGTGCACGTGTGGTT, GGTCGCACGTGCGTTT, TGTCACACGTGTGTAA, GTGCGCACGTGTCCGG, TTACTCACGTGGTTAT, TGAACCACGTGGCGTG, ATGCACACGTGTTGGG

Relative binding free energy, -0.04 kcal/mol:
TAAAACACGTGGGTAA, GATGGCACGTGGATGA, AAAGGCACGTGTGAGG, TAATGCACGTGGTTGA, TGGGGCACGTGATTTC, TGGTCCACGTGTTTAA, ATTAGCACGTGCGGTG, GAGGGCACGTGGTAAA, TTAAGCACGTGTGTGG

Relative binding free energy, -0.27 kcal/mol:
GGTGGCACGTGGTCGC

Relative binding free energy, 0.31 kcal/mol:
CGGCTCACGTGTGTAT

Relative binding free energy, -0.02 kcal/mol:
AGTAGCACGTGTGAGC, GATGGCACGTGCATTG, TTGTGCACGTGCTTGA, GGATACACGTGTATTG, ATGTGCACGTGTGCGT, AGAGGCACGTGATGTA

Relative binding free energy, 0 kcal/mol:
GGTTGCACGTGTGTCG, TAGGCCACGTGATGTT, GGGACCACGTGTAGTG, GTTCGCACGTGCGGTA, AGACTCACGTGGGAGT, GTGGACACGTGCTTTT

Relative binding free energy, 0.42 kcal/mol:
TCGTTCACGTGTGGCA

Relative binding free energy, 0.62 kcal/mol:
AGCTTCACGTGAAGGA

Relative binding free energy, 0.16 kcal/mol:
GGATGCACGTGATCGT, GGCTGCACGTGTGTGT

Relative binding free energy, 0.12 kcal/mol:
ATTGTCACGTGGACAT, ATGCACACGTGTTGGA, ATGATCACGTGTTTTA, GAGTCCACGTGTGGGA, TTGGTCACGTGGTTGT

Relative binding free energy, -0.18 kcal/mol:
GTTCGCACGTGGGGCT, CTAGGCACGTGCGTGT, CGGCGCACGTGTTTGT, CAGGGCACGTGGTGGT, GTGGGCACGTGGCGAC

Relative binding free energy, 0.29 kcal/mol:
ACTGTCACGTGAGTGG, GGATTCACGTGGGCCG, GTGGTCACGTGAGCGG, TAGTTCACGTGGCATT

Relative binding free energy, 0.37 kcal/mol:
CGATTCACGTGTGATT, ATGTTCACGTGAATCG

Relative binding free energy, 0.27 kcal/mol:
GTACACACGTGAGTGT, GGTATCACGTGATATG

Relative binding free energy, -0.21 kcal/mol:
GGGTGCACGTGGGTGA, ATTGGCACGTGCGGCG

Relative binding free energy, 0.08 kcal/mol:
GTAGTCACGTGCATGA, TTAATCACGTGGGATG, GCTGTCACGTGGTTGG, GGATCCACGTGTTTGT, AGTGCCACGTGAGTGA, AGTTGCACGTGCATTG, GGTGTCACGTGCGAGT

Relative binding free energy, 0.22 kcal/mol:
CTTGTCACGTGAGGGC, GGTATCACGTGGCAAT, GTATGCACGTGAGGGA, TTTCTCACGTGGCTAT

Relative binding free energy, -0.16 kcal/mol:
TTATACACGTGCGTGT, ATTGGCACGTGGGATG

Relative binding free energy, -0.03 kcal/mol:
GGAAGCACGTGTGGAG, TAGTGCACGTGCAATG, AATGCCACGTGTTGTG

Relative binding free energy, 0.07 kcal/mol:
AAAGGCACGTGATGAA, AAAAACACGTGGGAGT, TGTTCCACGTGATATG, TGATACACGTGCATTG

Relative binding free energy, 0.03 kcal/mol:
GGTAGCACGTGACAGG, GAGGTCACGTGGGCGT, CTGGACACGTGGATTG

Relative binding free energy, -0.23 kcal/mol:
GTATGCACGTGGTACG, AGCGGCACGTGGCGGT

Relative binding free energy, 0.45 kcal/mol:
CGTTTCACGTGAAATT

Relative binding free energy, 0.28 kcal/mol:
TTTCACACGTGAGGTA, CGTCTCACGTGTTTAT

Relative binding free energy, -0.1 kcal/mol:
AGTAGCACGTGACGTG, TTTAACACGTGGATGT

Relative binding free energy, -0.22 kcal/mol:
TGGGCCACGTGGCGTA, TGTACCACGTGCTGGG

Relative binding free energy, -0.07 kcal/mol:
CGAGTCACGTGGTGAG, TGACGCACGTGTGGGA, GTTGGCACGTGTGCGC, GGGGGCACGTGCGAGT

Relative binding free energy, -0.08 kcal/mol:
TATTGCACGTGGTCTT, GTTAGCACGTGGCGGA, TCATGCACGTGTTTAT, AAGTGCACGTGGGCGC, AAAGGCACGTGGAGCT, TTGTACACGTGGCCGT

Relative binding free energy, 0.01 kcal/mol:
TTTGGCACGTGTGTTA, TGGTACACGTGATTGT, TTACGCACGTGGTGAA, GGTTGCACGTGGCTGG
